# From article PMC12040169 (PLOS Biology, 2025)
# The other results are listed elsewhere or left out.
# System: T1, C. trachomatis L2/434/Bu expressing GFP (CTL2-GFP)
# T1 construct: L2/434/Bu GFP intracellular growth in HeLa cells
# Parameters: species or system HeLa; C. trachomatis total inclusion area by high-content imaging, normalised to DMSO
# Conditions: total inclusion area; 28.5 h, 10 µM; inhibitor
# Procedure, shortened: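 Imaging read-out: GFP inclusions and Hoechst nuclei captured by high-content imaging after fixation. Inclusion area/number = chlamydial growth; nuclei count = host cell viability. MIC calculated per earlier method.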
row,Compound,% of control remaining
1,CC(=O)OCc1ccc(CN2CCCCCC2c2cc(C)on2)o1 (centres unmarked) [CBK283004],106.132
2,Cc1ccc(S(=O)(=O)NCc2c(-c3ccccc3)c3cc(Br)ccc3[nH]c2=O)cc1 [CBK265231],82.3981
3,O=C(CC1(O)C(=O)N(CN2CCOCC2)c2ccccc21)c1ccc2c(c1)OCO2 (centres unmarked) [CBK269639],87.9483
4,COc1ccc(S(=O)(=O)NCCO)cc1-c1nnc2c3ccccc3c(C)nn12 [CBK266933],108.802
5,O=C(c1ccc(OC(F)(F)F)cc1)N1CCN(c2nnnn2-c2ccccc2)CC1 [CBK296622],117.087
6,COCCNc1nc(-c2cccc(Cl)c2Cl)ccc1C(=O)N(C)CCN(C)C [CBK105922],76.2067
7,Cn1c(=O)n(CC(=O)N2CCc3ccccc32)c2cccnc21 [CBK283792],67.7114
8,COCCNC(=O)c1ccc(-c2ccccc2CO)nc1N1CCOCC1 [CBK076559],104.756
9,CCN(CC)C(=O)N1CCC2(CC1)CC(=O)c1ccccc1O2 [CBK283495],95.7097
10,COCCN1CCOC2(CCN(C(=O)c3ccc(C)cc3)CC2)C1c1ccccc1OC (centres unmarked) [CBK112657C],95.0217
11,O=C(O)CN(Cc1ccccc1)Cc1ccccc1 [CBK260903],89.2042
12,Cc1cccc(Cn2cnc(NC(=O)COc3ccc([N+](=O)[O-])c(C)c3)n2)c1 [CBK268177],108.41
13,CN1CCN(C(=O)Cn2c(-c3cccs3)cc3cccnc32)CC1 [CBK282558],111.484
14,N#CCCCN1CCC(Oc2nccnc2OCc2ccccc2C(F)(F)F)CC1 [CBK153636],85.0728
15,COc1ccc(CC(=O)N2C3CCC2CC(O)(c2ccco2)C3)cc1 (centres unmarked) [CBK284137],84.4886
16,CCOc1ccc(CNCCc2ccc(S(N)(=O)=O)cc2)cc1 [CBK268090C],104.493
17,O=C(CSc1nc(O)c2c(-c3ccccc3)csc2n1)NCCc1ccccc1 [CBK268077],100.579
18,Cc1ccc(OCc2nnc(SCc3cccc(C#N)c3)n2N)cc1C [CBK267420],110.566
19,O=C(O)c1[nH]c2ccccc2c1NS(=O)(=O)c1ccc(Br)cc1 [CBK049878],75.5204
20,N#C/C(=C\c1cn(-c2ccccc2)nc1-c1ccc(S(=O)(=O)N2CCOCC2)cc1)c1nc2ccccc2c(=O)[nH]1 [CBK266343],133.914
21,CC(Oc1cccc(Cl)c1)C(=O)NN (centres unmarked) [CBK261207],81.7733
22,Cc1nn(C)c(C)c1NC(=O)CSc1nnc(-c2cccc(Br)c2)n1-c1ccccc1 [CBK267430],93.5638
23,O=C(Nc1ccc(Cl)cc1)N1CCCC(CO)C1 (centres unmarked) [CBK156047],89.7124
24,COc1cc(OC)cc(C(=O)Nc2ccc(S(=O)(=O)Nc3nccs3)cc2)c1 [CBK261300],96.7472
25,Cn1c(SCCC(=O)O)nnc1-c1ccc2c(c1)OCO2 [CBK269842],106.491
26,Nc1ncc(-c2cccc(OC(F)(F)F)c2)nc1-c1ccc(F)c(Cl)c1 [CBK064021],104.409
27,CC(=O)N[C@H](C(=O)N1CCC2(C/C=C/C[C@H]3COCC[C@H]3NC(=O)[C@@H](CC(C)C)NC2=O)CC1)[C@@H](C)OC(C)(C)C [CBK292197],97.7441

row,Compound,% of control remaining
1,CC(Sc1ccccc1)C(=O)NC(C)(C)C (centres unmarked) [CBK026610],102.275
2,COC(=O)c1ccc(-n2cccn2)c(C#Cc2cccnc2)c1 [CBK284525],97.4971
3,O=S(=O)(c1ccccc1)N1CCCC1c1cccs1 (centres unmarked) [CBK057002],47.2603
4,Cc1ccc(-c2nnc(NCc3cnn(C)c3C)o2)c(C)c1 [CBK306166],89.0103
5,CC(=O)N1C[C@@H]2OCC(=O)N(Cc3nccn3C)[C@@H]2C1 [CBK289668],125.691
6,OCCN1CCN(C2CCN(Cc3ccccc3Cl)CC2)CC1 [CBK264710],96.7254
7,COc1ccc(C(=O)N2CCC3(CCN(C(=O)Cc4c[nH]cn4)C3)C2)cc1OC (centres unmarked) [CBK131768],110.684
8,CC(C)Cn1c(=O)[nH]c2ncc(-c3ccco3)nc21 [CBK064353],88.6927
9,O=C(Nc1sc2c(c1C(=O)O)CCCC2)c1cc2ccccc2o1 [CBK264551],110.03
10,CC(C)NC(=O)[C@@H](C)C1CC[C@@]2(C)CC[C@H](NC(=O)c3cncnc3)[C@@H](C)[C@@H]2[C@H]1O (some centres unmarked) [CBK289454],94.3055
11,CCn1cc(C(=O)N2CCCC2c2nc3ccccc3[nH]2)cn1 (centres unmarked) [CBK283776],97.4141
12,CC(C)CC(NC(=O)c1ccco1)c1nc2cccnc2n1C (centres unmarked) [CBK283827],81.481
13,O=C(NCc1ccccn1)C(=O)N/N=C/c1ccccc1[N+](=O)[O-] [CBK262204],106.054
14,Cc1cn2c3c(=O)n(C)c(=O)n(C)c3nc2n1CCN1CCOCC1 [CBK270139],111.9
15,O=C(Nc1ccc(Br)cc1C(=O)c1ccccc1)c1ccc([N+](=O)[O-])s1 [CBK066838],68.2253
16,CC(=O)N1CCc2cc(NCc3nc4ccccc4n3C(C)c3ccccc3)ccc21 (centres unmarked) [CBK285621],93.1397
17,Cc1ccc(S(=O)(=O)N(CC(O)Cn2c3ccc(Cl)cc3c3cc(Cl)ccc32)c2ccccc2)cc1 (centres unmarked) [CBK263353],97.2668
18,COc1ccc(CCNC(=O)N2CCCC(CO)C2)cc1 (centres unmarked) [CBK156059],93.9749
19,Cc1ccc2nc(Cn3cc(-c4cnn(Cc5ccccc5)c4)cn3)cn2c1 [CBK297125],85.2253
20,CC1Cc2cc(C(O)CN3CCC(O)(c4ccccc4F)CC3)ccc2N1S(C)(=O)=O (centres unmarked) [CBK283091],100.978
21,Nc1cccc(S(=O)(=O)N2CCC(C(=O)O)CC2)c1 [CBK286541],104.236
22,CCCCCOc1ccc(Nc2cc(-c3ccc(N(C)C)cc3)ncn2)cc1 [CBK090889],91.0564
23,COc1ccc(CNC(=O)N2CCCCC2CO)cc1OC (centres unmarked) [CBK155981],93.4754
24,CS(=O)(=O)N1CC2(CCN(Cc3ccc(Cl)c(Cl)c3)CC2)c2ccccc21 [CBK084043],80.6827
25,Cc1noc(C)c1S(=O)(=O)Nc1c(C(=O)O)sc2ncccc12 [CBK049988],85.1367
26,CC(/C(=N/O)c1ccccc1)C(O)c1ccccn1 (centres unmarked) [CBK022993],41.0584
27,CC1(Cc2ccn[nH]2)SCCCS1 [CBK019308C],44.0093

row,Compound,% of control remaining
1,CCCc1csc(C2CN3CCCC3CO2)n1 (centres unmarked) [CBK304799],91.0155
2,COc1ccc([C@@]23CCC(NC(=O)Nc4ccccc4OC(F)F)C[C@@H]2N(C)CC3)cc1OC (some centres unmarked) [CBK047547T],86.9605
3,COc1ccc2c(c1)CCCN2C(=O)Cn1nc(C)cc1C [CBK282042],94.9796
4,COCC(=O)N1CCC(Oc2ccc3ncccc3c2)(C(=O)O)CC1 [CBK307340],72.7248
5,CCC1(CC)OC(NC[C@@H](C)c2ccccc2)=NC1=O [CBK123983],76.227
6,CC(C)(C)c1ccc(-c2cnc3ncccc3c2O)cc1 [CBK089628],89.4741
7,CCN(CC)C(=O)c1ccc(-c2ccc(NC(C)=O)cc2)nc1 [CBK158850],110.296
8,O=C(O)c1ccc2c(c1)C(=O)N(c1ccc(-c3nc(-c4ccccc4)c4ccccc4n3)cc1)C2=O [CBK263311],55.3876
9,Cn1c(N2CC[C@H](O)C2)nc2cc(C(=O)NCc3ccsc3)ccc21 [CBK307471],64.207
10,CCOc1ccc(C(N)CC(=O)O)c2ccccc12 (centres unmarked) [CBK287120],96.8263
11,COCCNc1nccnc1-c1cccnc1 [CBK037376],125.071
12,O=C1CC(c2ccc(Br)cc2)Nc2ccc3ccccc3c21 (centres unmarked) [CBK094798],105.165
13,CC(C(=O)NC(c1ccncc1)c1cccs1)n1ccnc1 (centres unmarked) [CBK281438],109.104
14,Cc1ccc(CN(Cc2ncc[nH]2)C2CC(C)(C)NC(C)(C)C2)o1 [CBK283191],58.968
15,CNC(=O)C1(Cc2ccccc2-c2ccccc2)CCN(C(=O)Cc2ccccc2)CC1 [CBK285695],102.446
16,CC(C)=NNC(=N)Nc1ccccc1 [CBK021452],78.1521
17,CCCn1c(CN2CCOCC2)nc2ccccc21 [CBK287784],72.8403
18,COCn1nccc1S(=O)(=O)NCCc1cn2ccccc2n1 [CBK304060],65.8563
19,COc1ccc(-c2cc(N3CCN(CCN4CCCC4)CC3)ncn2)cc1OC [CBK091173],88.9473
20,CC(C)Nc1nc2ccccc2nc1OCCCN(C)C [CBK113416],83.4373
21,c1coc(-c2nc3n(n2)CCS3)c1 [CBK007565],67.6589
22,COc1cc(/C=C2\C(=O)N(c3ccc(NC(C)=O)cc3)N=C2c2ccccc2)ccc1O [CBK265664],111.733
23,Cc1cc(C)n(C(=O)c2cn3cc(Cl)ccc3n2)n1 [CBK288185],92.8134
24,O=C(N[C@@H](Cn1ccc(=O)[nH]c1=O)C(=O)O)C1CCCCC1 [CBK289651],106.445
25,Cc1cc(C)n(CC(=O)NC2CCCOc3c(F)cccc32)n1 (centres unmarked) [CBK305553],64.2315
26,CCNc1cc(-c2ccc(CC(C)C)cc2)ncn1 [CBK090884],96.1043
